PMC6919601, “Identification of Plasmodium dipeptidyl aminopeptidase allosteric inhibitors by high throughput screening” (PLoS ONE, 2019)
“And” between values parts separate entries of the source, which are not always exact repeats. Equal values may be shown once. The campaign covered roughly 110,000 compounds. About 230 (0.21%) showed an effect of 50% or more. Some of the results follow.

Target: DPAP1 (Plasmodium falciparum, UniProt Q8IIJ9)
Experiment: primary screen, percent inhibition; read by cleavage of a fluorogenic dipeptide substrate; higher = more effect of the substance
Set-up: species or system P. falciparum D10 trophozoite lysates; single well
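Also: 30 min substrate incubation versus DMSO and 10 µM JCP410 controls.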

DPAP1, sequence (Q8IIJ9 whole entry, looked up): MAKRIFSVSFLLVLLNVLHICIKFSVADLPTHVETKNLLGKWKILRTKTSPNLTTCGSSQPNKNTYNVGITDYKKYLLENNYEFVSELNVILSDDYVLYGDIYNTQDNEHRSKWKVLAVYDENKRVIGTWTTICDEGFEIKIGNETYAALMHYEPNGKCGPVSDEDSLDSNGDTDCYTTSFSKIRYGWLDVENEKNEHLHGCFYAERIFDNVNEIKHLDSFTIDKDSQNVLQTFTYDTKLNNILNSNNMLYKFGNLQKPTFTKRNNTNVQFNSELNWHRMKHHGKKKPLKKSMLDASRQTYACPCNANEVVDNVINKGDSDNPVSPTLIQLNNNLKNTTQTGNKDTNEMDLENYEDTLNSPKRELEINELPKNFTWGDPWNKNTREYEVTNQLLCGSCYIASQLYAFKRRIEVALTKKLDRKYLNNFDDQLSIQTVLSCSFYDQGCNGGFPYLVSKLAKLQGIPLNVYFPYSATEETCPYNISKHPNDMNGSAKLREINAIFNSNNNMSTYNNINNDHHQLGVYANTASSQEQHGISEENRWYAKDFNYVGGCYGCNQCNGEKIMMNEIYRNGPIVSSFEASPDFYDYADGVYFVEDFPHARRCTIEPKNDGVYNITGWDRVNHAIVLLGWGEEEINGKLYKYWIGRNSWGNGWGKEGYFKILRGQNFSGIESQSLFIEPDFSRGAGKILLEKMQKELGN

Row | Compound | % Inhibition @ 10 uM
1 | O=C(c1ccccc1)N1CCN(CC(O)COC2CCCCC2)CC1 (stereo not shown) | 1.52%
2 | CC(C)Cn1cc(NC(=O)NC(C)c2ccccc2)c2ccccc2c1=O (stereo not shown) | -2.15%
3 | Nc1c(C(=O)NCc2ccccc2)sc2nc3c(c(-c4ccco4)c12)CCC3 | -0.458%
4 | O=C(c1ccco1)n1nc(-c2ccco2)nc1NCc1cccs1 | -1.47%
5 | Cc1ccc(CSc2nc3ccncc3n2Cc2ccc(C(=O)NCC3CCCO3)cc2)cc1 (stereo not shown) | 2.99%
6 | Cc1nn(Cc2ccccc2Cl)c(C)c1NC(=O)COc1ccc(F)cc1F | 6.03%
7 | CCn1nccc1C(=O)N1CCN(C(=O)c2ccco2)CC1 | -4.76% and -4.12%
8 | COc1ccc(CNC(=O)CSc2nc3ccc(C)cc3cc2C#N)cc1 | -2.64%
9 | Cc1cc(C=C2C(=O)c3ccccc3C2=O)c(C)n1-c1ccc(S(N)(=O)=O)cc1 | -3.14%
10 | Cc1nn(-c2ccc(F)cc2)c(-n2cccc2)c1C(=O)NC1CCC(C)CC1 (stereo not shown) | -0.252%
11 | COc1ccc(C2=NN(CC(=O)NCCCN3CCCC(C)C3)C(=O)CC2)cc1 (stereo not shown) | -1.79%
12 | COc1ccc(OC)c(CCNC(=O)c2cc3ccccn3n2)c1 | -0.0115%
13 | CCOc1cc(CNCCc2c[nH]c3ccccc23)cc(Cl)c1OCC(N)=O | -1.52%
14 | Cc1ccc2nc(C)cc(NCCO)c2c1 | 0.674%
15 | C=C(C)CN(CC)Cc1cc(O)ccc1[N+](=O)[O-] | 2.41%
16 | Cc1cc(C)c(C(=O)/C=C/c2ccccc2)c(O)n1 | -0.294%
17 | CCc1ccccc1-n1c(C)cc(/C=C2\C(=N)N3N=C(S(C)(=O)=O)SC3=NC2=O)c1C | 0.208%
18 | CCN(CC)CCN(C)C1CCc2ccccc2C1 (stereo not shown) | -1.42%
19 | Cc1ccc(-c2csc(/C(C#N)=C/c3cccc(F)c3)n2)c(C)c1 | -4.21%
20 | O=C(Cn1c(=O)oc2ccccc21)Nc1ccc(Br)cc1 | -6.51%
21 | COCCCNC(=O)C1CC(=O)N(Cc2ccc(OC)cc2)C1 (stereo not shown) | 3.79%
22 | Cc1nc(-c2cnoc2)c2cc(C)oc2n1 | -0.637%

Row | Compound | % Inhibition @ 10 uM
23 | COc1ccccc1OCC(=O)N(Cc1ccc(C)o1)C1CCS(=O)(=O)C1 (stereo not shown) | 8.19%
24 | COc1ccc(N2C(N)=C(C#N)C(c3cc(OC)c(OC)c(OC)c3)C3=C2CC(C)(C)CC3=O)cc1 (stereo not shown) | -1.64%
25 | O=c1c(I)c(O)cc(-c2ccccc2)n1-c1ccccc1 | -1.06%
26 | O=C1C(c2c[nH]c3ccccc23)CC(c2ccccc2)=NN1Cc1ccccc1 (stereo not shown) | -1.8%
27 | CC1(C)Cc2c(ccc3ccccc23)C2=CC(=O)C(=O)N21 | -0.13%
28 | CC(C)NC(=O)CSc1nc(-c2ccc(F)cc2)cc(C(F)(F)F)n1 | 2.46%
29 | O=C(Cn1cccc1C(=O)c1ccccc1)NC1CCN(Cc2ccccc2)CC1 | -0.522%
30 | CCN(CC)c1ccc(NC(=O)COc2ccccc2OC)cc1 | 1.86%
31 | CN(Cc1ccccc1)C(=O)C1CCCN(c2ncnc3c2sc2cccc(F)c23)C1 (stereo not shown) | 4.22%
32 | O=C1CC(NCC2CCCCC2)C(=O)N1c1ccc(Cl)cc1 (stereo not shown) | -4.5%
33 | Cc1nnc(NC(=O)CSc2nnc(Cc3cccn3C)n2-c2ccc(Cl)cc2)s1 | 3.75%
34 | CCCN(CCC)CCCNC(=O)c1cnn2c(C)c(Cc3ccccc3)c(C)nc12 | 1.16%
35 | COc1ccc(/C=C2/SC(N3CCCCC3)=NC2=O)c(OC)c1 | 4.74%
36 | CC(C)C[C@H](NC(=O)OCc1ccccc1)C(=O)NC(C#N)c1cccs1 (stereo partly shown) | -1.83%
37 | Cc1ccc(C2C=C(c3ccc(Cl)cc3)Nc3nc(N4C(=O)C5CC=CCC5C4=O)nn32)cc1 (stereo not shown) | -2.9%
38 | O=C(Nc1ccon1)C(Sc1ccccc1)c1ccccc1 (stereo not shown) | 3.53%
39 | CC(C)Oc1ccc(C(=O)Nc2ccccc2Cl)cc1 | -0.545%
40 | CC(CC12CC3CC(CC(C3)C1)C2)NC(=O)C1CCN(c2ncnc3c2nc2n3CCCCC2)CC1 (stereo not shown) | -2.71%
41 | Clc1ccc(N2CCN(Cc3ccc(-c4ccccc4)cc3)CC2)cc1 | -3.77%
42 | COc1cc2c(cc1OC)C(COc1ccccc1OC)N(C(=O)Cc1ccc(F)cc1)CC2 (stereo not shown) | -3.38%
43 | O=C1C2C3CCC(C3)C2C(=O)N1Cc1ccccc1 (stereo not shown) | 4.37%
44 | Cc1ccc(OCC(O)CN2CCN(Cc3ccc4c(c3)OCO4)CC2)c(C)c1 (stereo not shown) | -6.36%

Row | Compound | % Inhibition @ 10 uM
45 | COc1ccc(S(=O)(=O)NC2=NC(=O)/C(=C\c3cccnc3)S2)cc1 | 25.7%
46 | CCCCNC(=O)CCn1nc(-c2ccccc2)ccc1=O | -0.0542%
47 | CCC(CC)NC(=O)c1csc2c1CCCC2 | -10.4%
48 | Cn1c(=O)[nH]c(=O)c2c1nc(N1CCNCC1)n2Cc1ccccc1Cl | -9.66%
49 | COc1ccc(OC)c(/C=C2/SC(=O)NC2=O)c1 | 24.6%
50 | COc1ccc(CCNc2ncnc3sc4c(c23)CCC4)cc1OC | -3.97%
51 | CCOc1ccc2nc(NC(=O)c3[nH]c(C)c(C(C)=O)c3C)sc2c1 | 5.88%
52 | CCN(Cc1ccccc1)C(=O)CSc1nc2ncccc2o1 | 3.14%
53 | CC1(C)CC(NC(=O)c2ccco2)CC(C)(C)N1 | 2.86%
54 | CNS(=O)(=O)c1cnccc1N1CCN(c2cccc(C(F)(F)F)c2)CC1 | -3.92%
55 | O=C1NC(=O)C(=Cc2ccc(N3CCOCC3)c([N+](=O)[O-])c2)C(=O)N1 | 2.76%
56 | CCC(Sc1ccc2ccccc2n1)C(=O)O (stereo not shown) | 4.74%
57 | CCc1c(CO)csc1C | 2.3%
58 | CN(c1cccc(NS(=O)(=O)c2ccc(F)cc2)c1)S(C)(=O)=O | -1.02%
59 | CC(=O)OC(C)(C)C#CCN1CCN(C)CC1 | 4.61%
60 | CC(C)NC(=O)c1ccc(-c2ccccc2)s1 | 4.4%
61 | Cc1ccc2nc(O)c3cc(C(=O)N4CCC(C)CC4)sc3c2c1 | 1.08%
62 | Oc1cccc(CN2CCN(c3ccccn3)CC2)c1 | -1.07%
63 | O=C(CN1C(=O)C2C3c4ccccc4C(c4ccccc43)C2C1=O)Nc1ccccc1O (stereo not shown) | 6.24%
64 | Nc1ccccc1Nc1nc(N2CCCCC2)nc(N(c2ccccc2)c2ccccc2)n1 | 0.00178%
